# Some of the results follow.
# B1: Epa1-NP-mutant-Y228A (Candida glabrata), Q6VBJ0 (protein)
# chain: MILNPALFLNKCVCIYTTLILLLLTNGGYATSSNDISLASKDPTTFPLGCSPDITTPKKGLSMELYSYDFRKKGSYPCWDAAYLDPNYPRTGYKSHRLLAKVDGVTGNINFYYHATKGCTPQLGHLPASYNYPKPLTMTNFTMLLYGYFRPKVTGFHTFTISADDLLFVNFGAGNAFDCCRRDSSADHFGNYQAYAIWGSKTAKDELTVHLDAGVYYPIRLFYNNREADGALSFTFKTESNENTVSDFSEYFFSLDDTEEGCPGLISYDSSCASVKTSKIIGIDYHTETPNENLVPITKTIYHLGIPCTGTTTTPLCGSGFYDPLANKCVTINTSSTSSVTKTTSHTTSKEVSFHSSISSQKTLIPKSIPSPYGPIKSQSIPTEMETSSEISSSEYAFSDVISTPSHSPYTKKHSSLNSSSYTSTVIHSLTSYSISQGIFSTSLSEQNITSKSSTDKFSTATSMSNNITQSSIIISQFSTNNENYTTTSMHTSSDKISTETLNNSISTTTSILFSNSSTILKNNTTIISSDKDTHYHPVNPTIVCSTNKTEIICASITQPSISNSNNHWSSSVLKFNSTTVRSTLPSSAGSNETSINVPFSSSTESNTSTSSTSTSNSKMVRSTLPSSAGSNETSISVPFSSSTESNTSTSSTSTSNSKMVRSTLPSSAGSNETSINVPFSSSTESNTSTSSTSTSNSKTVRSTPFSSAGIIMTSLSQRNNKSASSYASSNSKCYNTADSCRKVHSTPSYLLTSSYTSEGVDYDCSLVSTKLKINDTNCVNNKHTTKSCLKTSVTTTIPTLEIKTARKSSSNTIGLHSYPTSSPNKSISSAPIIGYISSFKTIKTASPSYQTSDLTTITTITSLNNPGSTAVENTHESNDKSRKTSSNDISSKHSVIKETKDAVESSNKSHQTNTLKCSSIIIASSSHNSYESLGGTTLTLTLSKVYSPQNNDTLPFLEISEVNPSRTVLPESSKMMQYLTSTEERNKTARNTIATNIVSISTFHFEGEGNAIRMGYTQLLLMLIGIIVMNIGT
# Tests used:
# Assay in all cases: glycan array binding signal (z-score within array); higher = stronger binding
# Conditions in all cases: glycan notation: IUPAC condensed, linker removed; mutation: Y228A
# [1] = target: Gal(b1-4)GlcNAc(b1-3)Gal(b1-4)GlcNAc(b1-2)Man(a1-3)[Gal(b1-4)GlcNAc(b1-3)Gal(b1-4)GlcNAc(b1-2)Man(a1-6)]Man(b1-4)GlcNAc(b1-4)[Fuc(a1-6)]GlcNAc
# In short: (§1)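 Glycan array binding is given as a within-array Z-score, which can be read as non-binding when negative. The arrays, 3228 of them, came from the Consortium for Functional Glycomics database and were retained only where the protein sequence was available. Z-scores were averaged across arrays of the same protein sequence at different concentrations or buffers and across linkers.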
# [2] = target: Gal(b1-4)GlcNAc(b1-3)Gal(b1-4)GlcNAc(b1-2)[Gal(b1-4)GlcNAc(b1-3)Gal(b1-4)GlcNAc(b1-6)]Man(a1-6)[Gal(b1-4)GlcNAc(b1-3)Gal(b1-4)GlcNAc(b1-2)Man(a1-3)]Man(b1-4)GlcNAc(b1-4)GlcNAc
# In short: as §1
# [3] = target: Gal(b1-4)GlcNAc(b1-3)Gal(b1-4)GlcNAc(b1-2)[Gal(b1-4)GlcNAc(b1-3)Gal(b1-4)GlcNAc(b1-6)]Man(a1-6)[Gal(b1-4)GlcNAc(b1-3)Gal(b1-4)GlcNAc(b1-2)Man(a1-3)]Man(b1-4)GlcNAc(b1-4)[Fuc(a1-6)]GlcNAc
# In short: as §1
# [4] = target: Gal(b1-4)GlcNAc(b1-3)Gal(b1-4)GlcNAc(b1-3)Gal(b1-4)GlcNAc
# In short: as §1
# [5] = target: Gal(b1-4)GlcNAc(b1-3)Gal(b1-4)GlcNAc(b1-3)Gal(b1-4)GlcNAc(b1-2)Man(a1-3)[Gal(b1-4)GlcNAc(b1-3)Gal(b1-4)GlcNAc(b1-3)Gal(b1-4)GlcNAc(b1-2)Man(a1-6)]Man(b1-4)GlcNAc(b1-4)GlcNAc
# In short: as §1
# [6] = target: Gal(b1-4)GlcNAc(b1-3)Gal(b1-4)GlcNAc(b1-3)Gal(b1-4)GlcNAc(b1-2)Man(a1-3)[Gal(b1-4)GlcNAc(b1-3)Gal(b1-4)GlcNAc(b1-3)Gal(b1-4)GlcNAc(b1-2)Man(a1-6)]Man(b1-4)GlcNAc(b1-4)[Fuc(a1-6)]GlcNAc
# In short: as §1
# [7] = target: Gal(b1-4)GlcNAc(b1-3)Gal(b1-4)GlcNAc(b1-3)Gal(b1-4)GlcNAc(b1-2)[Gal(b1-4)GlcNAc(b1-3)Gal(b1-4)GlcNAc(b1-3)Gal(b1-4)GlcNAc(b1-6)]Man(a1-6)[Gal(b1-4)GlcNAc(b1-3)Gal(b1-4)GlcNAc(b1-3)Gal(b1-4)GlcNAc(b1-2)Man(a1-3)]Man(b1-4)GlcNAc(b1-4)[Fuc(a1-6)]GlcNAc
# In short: as §1
# [8] = target: Gal(b1-4)GlcNAc(b1-3)Gal(b1-4)GlcNAc(b1-3)Gal(b1-4)GlcNAc(b1-3)Gal(b1-4)GlcNAc(b1-2)Man(a1-3)[Gal(b1-4)GlcNAc(b1-3)Gal(b1-4)GlcNAc(b1-3)Gal(b1-4)GlcNAc(b1-3)Gal(b1-4)GlcNAc(b1-2)Man(a1-6)]Man(b1-4)GlcNAc(b1-4)GlcNAc
# In short: as §1
# [9] = target: Gal(b1-4)GlcNAc(b1-3)Gal(b1-4)GlcNAc(b1-3)Gal(b1-4)GlcNAc(b1-3)Gal(b1-4)GlcNAc(b1-2)Man(a1-3)[Gal(b1-4)GlcNAc(b1-3)Gal(b1-4)GlcNAc(b1-3)Gal(b1-4)GlcNAc(b1-3)Gal(b1-4)GlcNAc(b1-2)Man(a1-6)]Man(b1-4)GlcNAc(b1-4)[Fuc(a1-6)]GlcNAc
# In short: as §1
# [10] = target: Gal(b1-4)GlcNAc(b1-3)Gal(b1-4)GlcNAc(b1-3)Gal(b1-4)GlcNAc(b1-3)Gal(b1-4)GlcNAc(b1-2)[Gal(b1-4)GlcNAc(b1-3)Gal(b1-4)GlcNAc(b1-3)Gal(b1-4)GlcNAc(b1-3)Gal(b1-4)GlcNAc(b1-6)]Man(a1-6)[Gal(b1-4)GlcNAc(b1-3)Gal(b1-4)GlcNAc(b1-3)Gal(b1-4)GlcNAc(b1-3)Gal(b1-4)GlcNAc(b1-2)Man(a1-3)]Man(b1-4)GlcNAc(b1-4)[Fuc(a1-6)]GlcNAc
# In short: as §1
# [11] = target: Gal(b1-4)GlcNAc(b1-3)Gal(b1-4)GlcNAc(b1-3)Gal(b1-4)GlcNAc(b1-3)Gal(b1-4)GlcNAc(b1-3)Gal(b1-4)GlcNAc(b1-2)Man(a1-3)[Gal(b1-4)GlcNAc(b1-3)Gal(b1-4)GlcNAc(b1-3)Gal(b1-4)GlcNAc(b1-3)Gal(b1-4)GlcNAc(b1-3)Gal(b1-4)GlcNAc(b1-2)Man(a1-6)]Man(b1-4)GlcNAc(b1-4)GlcNAc
# In short: as §1
# [12] = target: Gal(b1-4)GlcNAc(b1-3)Gal(b1-4)GlcNAc(b1-3)Gal(b1-4)GlcNAc(b1-3)Gal(b1-4)GlcNAc(b1-3)Gal(b1-4)GlcNAc(b1-2)Man(a1-3)[Gal(b1-4)GlcNAc(b1-3)Gal(b1-4)GlcNAc(b1-3)Gal(b1-4)GlcNAc(b1-3)Gal(b1-4)GlcNAc(b1-3)Gal(b1-4)GlcNAc(b1-2)Man(a1-6)]Man(b1-4)GlcNAc(b1-4)[Fuc(a1-6)]GlcNAc
# In short: as §1
# [13] = target: Gal(b1-4)GlcNAc(b1-3)Gal(b1-4)GlcNAc(b1-3)Gal(b1-4)GlcNAc(b1-3)Gal(b1-4)GlcNAc(b1-3)Gal(b1-4)GlcNAc(b1-2)[Gal(b1-4)GlcNAc(b1-3)Gal(b1-4)GlcNAc(b1-3)Gal(b1-4)GlcNAc(b1-3)Gal(b1-4)GlcNAc(b1-3)Gal(b1-4)GlcNAc(b1-6)]Man(a1-6)[Gal(b1-4)GlcNAc(b1-3)Gal(b1-4)GlcNAc(b1-3)Gal(b1-4)GlcNAc(b1-3)Gal(b1-4)GlcNAc(b1-3)Gal(b1-4)GlcNAc(b1-2)Man(a1-3)]Man(b1-4)GlcNAc(b1-4)[Fuc(a1-6)]GlcNAc
# In short: as §1
# [14] = target: Gal(b1-4)GlcNAc(b1-3)Gal(b1-4)GlcNAc(b1-3)Gal(b1-4)GlcNAc(b1-3)Gal(b1-4)GlcNAc(b1-3)Gal(b1-4)GlcNAc(b1-3)Gal(b1-4)GlcNAc(b1-2)Man(a1-3)[Gal(b1-4)GlcNAc(b1-3)Gal(b1-4)GlcNAc(b1-3)Gal(b1-4)GlcNAc(b1-3)Gal(b1-4)GlcNAc(b1-3)Gal(b1-4)GlcNAc(b1-3)Gal(b1-4)GlcNAc(b1-2)Man(a1-6)]Man(b1-4)GlcNAc(b1-4)GlcNAc
# In short: as §1
# [15] = target: Gal(b1-4)GlcNAc(b1-3)Gal(b1-4)GlcNAc(b1-3)GalNAc
# In short: as §1
# [16] = target: Gal(b1-4)GlcNAc(b1-3)Gal(b1-4)GlcNAc(b1-3)[Gal(b1-4)GlcNAc(b1-3)Gal(b1-4)GlcNAc(b1-6)]GalNAc
# In short: as §1
# [17] = target: Gal(b1-4)GlcNAc(b1-3)Gal(b1-4)GlcNAc(b1-6)[Gal(b1-3)]GalNAc
# In short: as §1
# [18] = target: Gal(b1-4)GlcNAc(b1-3)Gal(b1-4)[Fuc(a1-3)]GlcNAc(b1-3)Gal(b1-4)[Fuc(a1-3)]GlcNAc
# In short: as §1
# [19] = target: Gal(b1-4)GlcNAc(b1-3)GalNAc
# In short: as §1
# [20] = target: Gal(b1-4)GlcNAc(b1-3)[Fuc(a1-3)GlcNAc(b1-6)]Gal(b1-4)Glc
# In short: as §1
# [21] = target: Gal(b1-4)GlcNAc(b1-3)[Gal(b1-4)GlcNAc(b1-6)]Gal(b1-4)GlcNAc
# In short: as §1
# [22] = target: Gal(b1-4)GlcNAc(b1-3)[GlcNAc(b1-6)]Gal(b1-4)GlcNAc
# In short: as §1
# [23] = target: Gal(b1-4)GlcNAc(b1-6)Gal(b1-4)GlcNAc
# In short: as §1
# [24] = target: Gal(b1-4)GlcNAc(b1-6)GalNAc
# In short: as §1
# [25] = target: Gal(b1-4)GlcNAc(b1-6)[Gal(b1-3)]GalNAc
# In short: as §1
# [26] = target: Gal(b1-4)GlcNAc(b1-6)[Gal(b1-4)GlcNAc(b1-3)]GalNAc
# In short: as §1
# Gal(b1-4)GlcNAc6P = target: Gal(b1-4)GlcNAc6P
# In short: as §1
# Gal(b1-6)Gal = target: Gal(b1-6)Gal
# In short: as §1
# Gal3S(b1-3)GalNAc = target: Gal3S(b1-3)GalNAc
# In short: as §1
# Gal3S(b1-3)GlcNAc = target: Gal3S(b1-3)GlcNAc
# In short: as §1
binder,measurement,setting,value
B1,glycan array binding signal (z-score),[1],-0.026
same,glycan array binding signal (z-score),[2],0.309
same,glycan array binding signal (z-score),[3],0.701
same,glycan array binding signal (z-score),[4],-0.241
same,glycan array binding signal (z-score),[5],-0.005
same,glycan array binding signal (z-score),[6],-0.079
same,glycan array binding signal (z-score),[7],0.272
same,glycan array binding signal (z-score),[8],-0.15
same,glycan array binding signal (z-score),[9],0.074
same,glycan array binding signal (z-score),[10],0.047
same,glycan array binding signal (z-score),[11],0.155
same,glycan array binding signal (z-score),[12],-0.048
same,glycan array binding signal (z-score),[13],0.274
same,glycan array binding signal (z-score),[14],-0.141
same,glycan array binding signal (z-score),[15],-0.184
same,glycan array binding signal (z-score),[16],-0.056
same,glycan array binding signal (z-score),[17],0.235
same,glycan array binding signal (z-score),[18],-0.206
same,glycan array binding signal (z-score),[19],-0.147
same,glycan array binding signal (z-score),[20],-0.127
same,glycan array binding signal (z-score),[21],0.463
same,glycan array binding signal (z-score),[22],-0.169
same,glycan array binding signal (z-score),[23],2.72
same,glycan array binding signal (z-score),[24],0.019
same,glycan array binding signal (z-score),[25],0.895
same,glycan array binding signal (z-score),[26],0.637
same,glycan array binding signal (z-score),Gal(b1-4)GlcNAc6P,-0.19
same,glycan array binding signal (z-score),Gal(b1-6)Gal,0.243
same,glycan array binding signal (z-score),Gal3S(b1-3)GalNAc,-0.153
same,glycan array binding signal (z-score),Gal3S(b1-3)GlcNAc,-0.151
